Laboratory results reported in PubChem BioAssay AID588342 (National Center for Advancing Translational Sciences (NCATS), 2011).
Among all 360,000 compounds or so, about 25,000 (6.9%) were called active. The shares of active, inactive and inconclusive entries below differ from those in the screen. The call rests on the fitted dose curve; in most records, active means well fitted inhibition curve with a large enough effect; inconclusive means small, poorly fitted or top-dose-only effect; inactive means flat fitted curve, though single readings scatter. Potencies of inconclusive entries are doubtful fits and often do not repeat.
Further: nearly all actives have a fitted effect of over 55% in size.
Potency means the concentration at half of the fitted maximal effect; tags describe the fitted curve by direction and shape.

These compounds were tested against Luciferin 4-monooxygenase (Photinus pyralis) (UniProt P08659) (assay: qHTS profiling assay for firefly luciferase inhibitor/activator using purifed enzyme and Km concentrations of substrates (counterscreen for miR-21 project)). Settings: purified FLuc, luminescence inhibition; series mostly up to 57.5 µM.
Chain of UniProt P08659 (P08659 whole entry, looked up): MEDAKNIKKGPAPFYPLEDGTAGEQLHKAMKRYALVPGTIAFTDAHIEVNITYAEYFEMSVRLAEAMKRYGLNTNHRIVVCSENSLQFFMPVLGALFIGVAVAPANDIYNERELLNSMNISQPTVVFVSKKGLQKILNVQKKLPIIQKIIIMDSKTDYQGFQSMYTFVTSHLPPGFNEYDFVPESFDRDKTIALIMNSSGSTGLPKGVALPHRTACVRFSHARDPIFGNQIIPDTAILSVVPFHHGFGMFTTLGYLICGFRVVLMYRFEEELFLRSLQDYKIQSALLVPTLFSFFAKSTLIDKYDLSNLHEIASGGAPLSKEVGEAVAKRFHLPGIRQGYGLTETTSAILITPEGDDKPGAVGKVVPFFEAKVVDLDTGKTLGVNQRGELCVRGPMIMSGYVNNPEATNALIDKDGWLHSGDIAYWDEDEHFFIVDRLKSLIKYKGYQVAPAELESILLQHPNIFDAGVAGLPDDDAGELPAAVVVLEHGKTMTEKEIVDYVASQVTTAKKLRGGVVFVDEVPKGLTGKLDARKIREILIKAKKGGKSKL
Procedure, shortened: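 Biochemical qHTS of compounds, final roughly 60 µM downward over six points, against 10 nM purified firefly luciferase using Km concentrations of substrates (10 uM D-luciferin, 10 uM ATP) in Tris acetate pH 7.5 buffer; luminescence output.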
`CCOc1cccc2cc(C(=O)Oc3ccc(OC)cc3)c(=O)oc12` was tested, and the Potency was inconclusive: 26.9 µM [inhibitor, single point].
`CCOC(=O)c1[nH]c2ccc(Br)cc2c1NC(=O)CCN1CCCC(C)(C)C1` was tested, and the Potency was “inactive”.
With `CCOC(=O)c1cn[nH]c1NC(=S)Nc1ccc(OC)cc1` the Potency was active: 0.19 µM.
In the case of `CCOC(=O)Cc1csc(NC(=O)COc2cccc(C)c2)n1`, the Potency is reported as inconclusive: 37.9 µM [inhibitor, partial curve, poor fit].
For `COc1cc(/C=N/n2nnnc2Nc2ccccc2)cc(OC)c1OC`, the Potency was inconclusive: 26.9 µM [inhibitor, partial curve].
With `Cc1ccc(NC(=O)c2ccc(CSc3ccccn3)cc2)cc1` the Potency was inconclusive: 10.7 µM [inhibitor, partial curve].
For `CCCCN(C(=O)C1CC(=O)N(Cc2ccc(C)cc2)C1)c1c(N)n(CCCC)c(=O)[nH]c1=O` (stereo not drawn), the Potency was “inactive”.
With `CN1C(=O)/C(=C\C(=O)c2cccs2)c2ccccc21` the Potency was active: 19 µM.
For `CC(CNC(=O)CCc1nnc(CCC2CCCCC2)o1)c1ccccc1` (stereo not drawn), the Potency was inconclusive: 30.1 µM [inhibitor, single point].
`CC(NC(=O)NC(=O)c1ccc(Cl)cc1)c1ccccc1` (stereo not drawn) was tested, and the Potency was inconclusive: 23.9 µM [inhibitor, partial curve, poor fit].
With `COc1ccc(NC(=O)CCS(=O)(=O)c2ccc3nc(C)sc3c2)cc1Cl` the Potency was “inactive”.
With `Cc1c(NC(=O)c2ccco2)cccc1-c1nc2cccnc2s1` the Potency was active: 23.9 µM.
`CC(NC(=O)c1sc2cc([N+](=O)[O-])ccc2c1Cl)C(C)(C)C` (stereo not drawn) was tested, and the Potency was inconclusive: 13.5 µM [inhibitor, partial curve].
In the case of `O=C(Nc1ccc(Cl)cc1)c1cc(-c2cccs2)on1`, the Potency is reported as inconclusive: 1.69 µM [inhibitor, partial curve, poor fit].
With `O=C(CSc1ccccc1)Nc1ccc(-c2nc3ccccc3[nH]2)cc1` the Potency was inconclusive: 0.849 µM [inhibitor, full curve, poor fit].
For `COc1ccc2[nH]c(C(=O)Nc3cccc(C)n3)cc2c1`, the Potency was active: 1.2 µM.
For `O=C1OC(c2ccc(Cl)cc2)=N/C1=C\c1cccnc1`, the Potency was inconclusive: 30.1 µM [inhibitor, single point].
In the case of `CN(C(=O)COC(=O)COc1ccc(Cl)cc1Cl)c1c(N)n(Cc2ccccc2)c(=O)[nH]c1=O`, the Potency is reported as “inactive”.
`Cc1ccn2c(=O)cc(COc3ccc(NC(=O)c4ccccc4F)cc3)nc2c1` was tested, and the Potency was “inactive”.
In the case of `O=C(O)c1ccccc1Nc1ccc([N+](=O)[O-])c2nonc12`, the Potency is reported as inconclusive: 37.9 µM [inhibitor, partial curve, poor fit].
For `Cc1cccc(NC(=O)NC(=O)c2ccccc2)n1`, the Potency was inconclusive: 8.49 µM [inhibitor, partial curve].
`COc1ccc(-c2csc(NC(=O)COc3ccc(N(C)S(=O)(=O)c4ccc(C)cc4)cc3)n2)cc1` was tested, and the Potency was “inactive”.
With `N#CC1=C(N)OC2=C(C(=O)CCC2)[C@]12C(=O)N(CC(N)=O)c1ccccc12` the Potency was “inactive”.
With `Cc1ccc(C(=O)COC(=O)CNC(=O)c2cccs2)cc1C` the Potency was inconclusive: 23.9 µM [inhibitor, partial curve, poor fit].
In the case of `Cc1nc(S/C(=C\c2ccc(OCc3ccccc3Cl)cc2)C(=O)O)n[nH]1`, the Potency is reported as inconclusive: 12 µM [inhibitor, partial curve].
`O=C(Nc1ccc(Cl)cc1)/C(=C/c1ccc([N+](=O)[O-])cc1)c1nc2ccccc2s1` was tested, and the Potency was inconclusive: 15.1 µM [inhibitor, partial curve, poor fit].
With `CCCN=C(C)c1c(-c2ccccc2)[nH]n(-c2nc3ccccc3s2)c1=O` the Potency was inconclusive: 30.1 µM [inhibitor, single point].
For `COCCN(C(=S)Nc1ccc(C)cc1C)C(C)c1ccco1` (stereo not drawn), the Potency was inconclusive: 37.9 µM [inhibitor, single point].
In the case of `O=C(O)C(C(=O)/C=C/c1ccco1)=C1SCCS1`, the Potency is reported as inconclusive: 37.9 µM [inhibitor, partial curve, poor fit].
In the case of `Cc1ccc(Cl)cc1N1CCN(CCNC(=O)Nc2ccccc2Cl)CC1`, the Potency is reported as “inactive”.
For `CCCc1ccc(C(=O)NC(=O)c2ccccc2O)cc1`, the Potency was active: 0.601 µM.
`O=C(CSc1nnc(-c2ccc(OC(F)F)cc2)o1)N1CCOCC1` was tested, and the Potency was inconclusive: 30.1 µM [inhibitor, single point].
With `Cc1cc(NC(=O)C2CCN(S(=O)(=O)c3ccc4[nH]c(=O)oc4c3)CC2)ccc1Br` the Potency was inconclusive: 26.9 µM [inhibitor, partial curve, poor fit].
With `CC(C)(C)c1ccc(-n2ncc3c2CCCC3NC(=O)CCCn2cncn2)cc1` (stereo not drawn) the Potency was inconclusive: 21.3 µM [inhibitor, single point].
With `O=C(CNC(=O)C(c1ccccc1)c1ccccc1)OCC(=O)c1cccs1` the Potency was “inactive”.
With `Clc1ccc2noc(-c3ccccc3)c2c1` the Potency was inconclusive: 26.9 µM [inhibitor, partial curve, poor fit].
In the case of `CCOC(=O)C1CCN(S(=O)(=O)c2cccc(-c3cn4cc(C)ccc4n3)c2)CC1`, the Potency is reported as active: 8.49 µM.
With `CN(C(=O)COC(=O)c1cc(NS(=O)(=O)c2cc([N+](=O)[O-])ccc2Cl)ccc1O)C1CCCCC1` the Potency was inconclusive: 26.9 µM [inhibitor, single point].
In the case of `COc1ccc(-c2cc(=Nc3c(C)n(C)n(-c4ccccc4)c3=O)c3ccccc3o2)cc1`, the Potency is reported as inconclusive: 37.9 µM [inhibitor, single point].
With `O=C1[C@@H]2C(Cc3ccc(O)cc3)NC3(C(=O)Nc4ccc(F)cc43)[C@@H]2C(=O)N1c1ccc(F)cc1` (stereo partly drawn) the Potency was inconclusive: 30.1 µM [inhibitor, partial curve, poor fit].
`CCOC(=O)Cn1nc(C)c(NC(=O)COc2ccc(Cl)cc2C)c1C` was tested, and the Potency was “inactive”.
For `CCOC(=O)C1(Cc2cccc(Cl)c2)CCCN(C(=O)CN2C(=O)CSC2=O)C1` (stereo not drawn), the Potency was inconclusive: 37.9 µM [inhibitor, single point].
In the case of `Cc1coc2c1c(C)cc1oc(=O)c(CC(=O)NCC(=O)N[C@H](C(=O)O)C(C)C)c(C)c12`, the Potency is reported as inconclusive: 37.9 µM [inhibitor, partial curve, poor fit].
